The campaign covered roughly 410,000 compounds. About 310 (0.076%) were called active. Inconclusive results, whose numbers are uncertain, are shown with a selection of clear calls. The call rests on the fitted dose curve; in most records, active means well fitted curve in the direction sought with a large enough effect; inconclusive means small, poorly fitted or top-dose-only effect; inactive means flat fitted curve, though single readings scatter. Potencies of inconclusive entries are doubtful fits and often do not repeat.
The compounds below were run against DNA dC->dU-editing enzyme APOBEC-3G (Homo sapiens) (UniProt Q9HC16) (assay: qHTS for Inhibitors of Vif-A3G Interactions: qHTS). Conditions: HeLa A3G-eYFP + Vif (tagged APOBEC3G with the HIV-1 protein that degrades it), YFP fluorescence, overnight; series mostly up to 46.1 µM.
Sequence of UniProt Q9HC16 (Q9HC16 whole entry, looked up): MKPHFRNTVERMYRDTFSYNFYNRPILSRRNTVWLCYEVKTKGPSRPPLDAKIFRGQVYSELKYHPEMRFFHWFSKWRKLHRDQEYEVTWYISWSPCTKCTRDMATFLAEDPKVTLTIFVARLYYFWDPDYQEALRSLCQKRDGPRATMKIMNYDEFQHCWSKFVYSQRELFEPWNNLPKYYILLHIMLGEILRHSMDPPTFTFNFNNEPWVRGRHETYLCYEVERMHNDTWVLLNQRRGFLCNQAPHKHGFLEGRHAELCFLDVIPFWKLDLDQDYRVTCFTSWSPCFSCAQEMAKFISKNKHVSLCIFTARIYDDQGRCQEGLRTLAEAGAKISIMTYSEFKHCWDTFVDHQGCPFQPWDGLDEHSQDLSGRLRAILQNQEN
Method in brief: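 HeLa cells stably expressing Vif and C-terminally eYFP-tagged A3G, seeded overnight at 37 deg C, then exposed to compound by pintool overnight at 37 deg C. Rise in yellow fluorescence (Ex 488/Em 500-530, Acumen) marks blocked Vif-driven A3G degradation.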
With `Oc1ccc2c(c1)oc1cc(O)ccc12` the Potency was “inactive”.
In the case of `Cc1[nH][nH]c(=O)c1C(c1c(C)[nH][nH]c1=O)c1cn(Cc2ccc(F)cc2)c2ccccc12`, the Potency was inconclusive: 11.2 µM [inhibitor, single point].
In the case of `COc1ccccc1/C=C/C=N/NC(=O)CCn1cnc2ccccc21`, the Potency was inconclusive: 3.55 µM [inhibitor, full curve].
`O=CN/C=C/c1cc(O)ccc1O` was tested, and the Potency was inconclusive: 22.4 µM [inhibitor, single point].
`Cc1ccccc1OCc1ccc(-c2nc(C#N)c(NCc3cccnc3)o2)o1` was tested, and the Potency was “inactive”.
With `C(=N\n1cnnc1)/c1ccc(-c2ccccc2)cc1` the Potency was inconclusive: 8.91 µM [inhibitor, partial curve, poor fit].
`Oc1ccccc1-c1nc(/C=C/c2ccccc2Cl)nn1-c1ccccc1` was tested, and the Potency was “inactive”.
For `O=C1/C(=C\c2ccccc2)CCC/C1=C/c1ccccc1`, the Potency was inconclusive: 35.5 µM [inhibitor, single point].
In the case of `CCCc1cc(C(=O)N/N=C/c2ccc(CC)s2)c2ccccc2n1`, the Potency was inconclusive: 0.631 µM [inhibitor, full curve, poor fit].
With `Cn1ccc(C(=O)Nc2cccnc2Cl)n1` the Potency was “inactive”.
With `O=C1[C@@H]2CSC(c3ccc(Cl)cc3)N2C(=O)N1c1ccccc1` (stereo not given in full) the Potency was “inactive”.
With `Cc1cc(C(=O)Nc2sc3c(c2C#N)CCC(C(C)(C)C)C3)no1` (stereo not given) the Potency was inconclusive: 8.91 µM [inhibitor, partial curve].
For `COc1ccc(OC)c(C2CC(=O)c3c([nH]c(C(=O)OC(C)C)c3C)C2)c1` (stereo not given), the Potency was inconclusive: 1.12 µM [inhibitor, full curve].
`N#C/C(=C/c1ccc(O)c(O)c1)c1nc2ccccc2[nH]1` was tested, and the Potency was inconclusive: 17.8 µM [inhibitor, partial curve, poor fit].
For `COc1cc2c(cc1OC)C(c1cccs1)N(C(=O)c1ccncc1)CC2` (stereo not given), the Potency was inconclusive: 12.6 µM [inhibitor, partial curve, poor fit].
For `CCCSc1nnc(NC(=O)c2sc3nc(-c4cccs4)ccc3c2N)s1`, the Potency was inconclusive: 12.6 µM [inhibitor, partial curve, poor fit].
For `O=C1Oc2ccccc2C(=O)/C1=C/c1ccccc1O`, the Potency was inconclusive: 28.2 µM [inhibitor, single point].
`CC(C)(C)n1ncc2c(=O)n(Cc3ccc(C#N)c(F)c3)cnc21` was tested, and the Potency was “inactive”.
With `CC1CCN(S(=O)(=O)c2ccc3c(c2)CCN3)CC1` the Potency was “inactive”.
`Cc1ccccc1NC(=O)c1ccc2c(c1)c(C)c(C)n2Cc1ccccc1` was tested, and the Potency was inconclusive: 2.24 µM [inhibitor, full curve].
With `C#CCOCCOCCOCCNc1nc(N2CCN(C(=O)CCCCCCCCCCNC(=O)[C@H](CCCCN)n3cc(C)nn3)CC2)nc(N2CCN(C(=O)CCCCCCCCCCNC(=O)[C@H](CO)n3cc(CCCSC)nn3)CC2)n1` the Potency was inconclusive: 35.5 µM [inhibitor, single point].
For `N#CC1=C(N)Oc2n[nH]c(-c3cccnc3)c2C1c1ccc([N+](=O)[O-])o1` (stereo not given), the Potency was inconclusive: 25.1 µM [inhibitor, single point].
`COc1ccc(/C(N)=N/OC(=O)c2ccc3c(c2)OCO3)cc1OC` was tested, and the Potency was inconclusive: 22.4 µM [inhibitor, single point].
With `Nc1ccccc1/C=C/c1ccnc2ccccc12` the Potency was active: 12.6 µM.
In the case of `CCN1C(=O)c2cccc3c(N)ccc(c23)C1=O`, the Potency was inconclusive: 3.16 µM [inhibitor, partial curve, poor fit].
In the case of `N#Cc1cc2ccccc2nc1SCc1ccccn1`, the Potency was inconclusive: 35.5 µM [inhibitor, single point].
In the case of `COc1ccccc1NC(=O)c1cc(=O)c2ccc(C)c(C)c2o1`, the Potency was “inactive”.
With `CCOC(=O)c1ccc(N2C(=O)C=CC2=O)cc1` the Potency was “inactive”.
With `COc1ccc(CCC(=O)Nc2ccc(-c3noc(-c4ccc(OC)c(OC)c4)n3)cc2)cc1` the Potency was “inactive”.
`Cc1cc(NC(=O)CSc2nc(-c3ccco3)cc(C(F)(F)F)n2)n(-c2ccccc2)n1` was tested, and the Potency was inconclusive: 2.51 µM [inhibitor, full curve].
In the case of `CC(=O)N1CCc2c(sc(NC(=O)CSc3ccccc3)c2-c2nc3ccccc3s2)C1`, the Potency was inconclusive: 11.2 µM [inhibitor, partial curve].
For `O=C(CNC(=O)C(c1ccccc1)c1ccccc1)OCC(=O)c1ccc2ccccc2c1`, the Potency was “inactive”.
With `Clc1ccsc1-c1csc(-c2cccnc2)n1` the Potency was inconclusive: 7.08 µM [inhibitor, full curve, poor fit].
`Cc1ccc(C)c(S(=O)(=O)N2CCCC2CNC(=O)C(=O)NCCc2ccccc2)c1` (stereo not given) was tested, and the Potency was inconclusive: 35.5 µM [inhibitor, single point].
For `CCOC(=O)c1c(C)[nH]c(C(=O)N/N=C/c2cccc(OC)c2)c1C`, the Potency was inconclusive: 7.94 µM [inhibitor, partial curve, poor fit].
In the case of `COc1cc(OC)cc(-n2nnnc2SCC(=O)N2CCCc3ccccc32)c1`, the Potency was “inactive”.
In the case of `CCOC(=O)C1CCCN(CC(=O)N2CCCc3c2c(=O)oc2ccc(OCc4ccccc4)cc32)C1` (stereo not given), the Potency was “inactive”.
For `CCOC(=O)N1CCN(C(=O)c2cc(-c3ccc(OCC)cc3)nc3ccccc23)CC1`, the Potency was inconclusive: 2.82 µM [inhibitor, full curve, poor fit].
`CN(C)c1ccc(NC(=O)CSc2nnc(-c3ccco3)c(-c3ccco3)n2)cc1` was tested, and the Potency was inconclusive: 25.1 µM [inhibitor, single point].
With `CN1C(=CC=C2C=C(I)C(=O)C(I)=C2)C(C)(C)c2ccccc21` the Potency was “inactive”.
For `O=C(NCCc1ccc(Cl)cc1)Nc1ccc(F)cc1`, the Potency was “inactive”.
In the case of `NC(=O)COC(=O)c1ccccc1OCc1ccccc1`, the Potency was “inactive”.
With `COc1ccc(NS(=O)(=O)c2ccc(NC(=S)NC(=O)/C=C/c3ccccc3)cc2)nn1` the Potency was inconclusive: 35.5 µM [inhibitor, partial curve, poor fit].
`COc1ccc(C(=O)Nc2nc3nc(C)c(Cc4ccccc4)c(=O)n3[nH]2)cc1OC` was tested, and the Potency was “inactive”.
With `COc1cc(/C=C/C(=O)c2ccc3c(c2)OCO3)cc(OC)c1OC` the Potency was “inactive”.
Further: nearly all actives have a fitted effect of over 60% in size.
Potency means the concentration at half of the fitted maximal effect; tags describe the fitted curve by direction and shape.
